Experimental data reported in the supplement of paper PMC9446081.
Out of some 39,000 compounds screened, about 220 (0.56%) showed activity. Some of the results follow.

Tested on: Escherichia coli K-12 BW25113
Experiment: relative growth (OD600 normalised to plate interquartile mean) (fraction); higher = less growth inhibition, active = 0.2 or less
Details: 50 µM; LB; incubation time: overnight (16-24 h)
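Also: static incubation at 37 °C against the wild-type strain, values averaged over two biological replicates.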

| SMILES | relative growth |
| --- | --- |
| O=C(C[C@@H]1C=C[C@H](NC(=O)C2CC2)[C@@H](CO)O1)NCCCN1CCOCC1 | inactive: 0.994 |
| Cc1ccc(S(=O)(=O)N(C)C[C@@H]2OCCCC[C@H](C)Oc3ccc(NC(=O)NC4CCCCC4)cc3C(=O)N([C@@H](C)CO)C[C@H]2C)cc1 | inactive: 0.975 |
| COc1ccc(S(=O)(=O)Nc2cccc3c2O[C@@H](CN(C)S(=O)(=O)c2cccs2)[C@@H](C)CN([C@H](C)CO)C3=O)cc1 | inactive: 1.01 |
| COC(=O)CCCCCCC(=O)N/N=C/[C@H](O)[C@@H](O)[C@H](O[C@@H]1O[C@H](CO)[C@H](O)[C@H](O)[C@H]1O)[C@H](O)CO | inactive: 0.991 |
| O=C(O)CCCC[C@@H]1SC[C@@H]2NC(=O)N[C@@H]21 | inactive: 1 |
| COc1ccc(S(=O)(=O)N(C)C[C@H]2OCCCC[C@H](C)Oc3ccc(NC(=O)Nc4c(C)noc4C)cc3C(=O)N([C@@H](C)CO)C[C@@H]2C)cc1 | inactive: 1.02 |
| C[C@H](CO)N1C[C@H](C)[C@H](CN(C)S(C)(=O)=O)Oc2ccc(NS(=O)(=O)c3ccc(F)cc3)cc2C1=O | inactive: 0.984 |
| Cc1ccc(S(=O)(=O)N(C)C[C@H]2OCCCC[C@H](C)Oc3ccc(NC(=O)C4CCCCC4)cc3C(=O)N([C@H](C)CO)C[C@@H]2C)cc1 | inactive: 1.01 |
| C[C@H](CO)N1C[C@H](C)[C@@H](CN(C)S(C)(=O)=O)Oc2ccc(NS(=O)(=O)c3ccc(Cl)cc3)cc2CC1=O | inactive: 0.988 |
| COc1ccc(NC(=O)Nc2ccc3c(c2)C(=O)N([C@H](C)CO)C[C@@H](C)[C@@H](CN(C)S(=O)(=O)c2ccc(OC)cc2)OCCCC[C@H](C)O3)cc1 | inactive: 1.02 |
| Cc1cc(O)cc(=O)[nH]1 | inactive: 0.962 |
| C[C@@H]1CCCCO[C@H](CN(C)C(=O)c2ccccc2)[C@@H](C)CN([C@H](C)CO)C(=O)c2cc(NC(=O)c3ccccc3)ccc2O1 | inactive: 0.974 |
| NCC[C@@H]1CC[C@@H](NC(=O)Nc2ccc(F)cc2)[C@H](CO)O1 | inactive: 0.962 |
| Cc1ccc(S(=O)(=O)N(C)C[C@@H]2Oc3c(NC(=O)Nc4ccc(C(F)(F)F)cc4)cccc3C(=O)N([C@H](C)CO)C[C@@H]2C)cc1 | inactive: 0.955 |
| CC(C)NC(=O)Nc1ccc2c(c1)C(=O)N([C@@H](C)CO)C[C@H](C)[C@H](CN(C)C(=O)Nc1ccc(F)cc1)OCCCC[C@@H](C)O2 | inactive: 1 |
| CCCCc1cc(CCCC)n2nc(-c3ccccc3)cc2n1 | inactive: 1.04 |
| Nc1nc(=O)c2nc(CNc3ccc(C(=O)N[C@@H](CCC(=O)O)C(=O)O)cc3)cnc2[nH]1 | inactive: 0.99 |
| C[C@@H]1CN([C@H](C)CO)C(=O)c2cccc(NC(=O)Nc3ccc4c(c3)OCO4)c2O[C@H]1CN(C)Cc1ccc(Cl)c(Cl)c1 | inactive: 1 |
| C[C@@H]1CN([C@H](C)CO)C(=O)Cc2cc(NC(=O)C3CC3)ccc2O[C@@H]1CN(C)C(=O)Nc1ccc2c(c1)OCO2 | inactive: 0.981 |
| CN1Cc2c(Cl)cc(Cl)cc2[C@H](c2cccc(S(=O)(=O)NCCOCCOCCNC(=O)NCCCCNC(=O)NCCOCCOCCNS(=O)(=O)c3cccc([C@@H]4CN(C)Cc5c(Cl)cc(Cl)cc54)c3)c2)C1 | inactive: 0.963 |
| CO/N=[N+](\[O-])NC(C)C | inactive: 0.985 |

| SMILES | relative growth |
| --- | --- |
| COc1ccc(NC(=O)N(C)C[C@@H]2OCCCC[C@H](C)Oc3ccc(NC(=O)Nc4c(C)noc4C)cc3C(=O)N([C@H](C)CO)C[C@@H]2C)cc1 | inactive: 1.02 |
| C[C@H]1CCCCO[C@H](CN(C)Cc2ccccc2)[C@@H](C)CN([C@@H](C)CO)C(=O)c2cc(NS(=O)(=O)c3cccs3)ccc2O1 | inactive: 0.979 |
| CCN(CC)C(=O)c1cccc(C)c1 | inactive: 0.981 |
| CC(C)NC(=O)Nc1cccc2c1O[C@@H](CN(C)Cc1ccc(-c3ccccc3)cc1)[C@@H](C)CN([C@H](C)CO)C2=O | inactive: 0.999 |
| COc1ccc(NC(=O)N(C)C[C@H]2OCCCC[C@H](C)Oc3ccc(NC(=O)Nc4ccc(C(F)(F)F)cc4)cc3C(=O)N([C@@H](C)CO)C[C@H]2C)cc1 | inactive: 1.02 |
| C[C@@H]1CCCCO[C@@H](CN(C)C(=O)Nc2ccc(C(F)(F)F)cc2)[C@H](C)CN([C@H](C)CO)C(=O)c2cc(NC(=O)Nc3ccc(F)cc3)ccc2O1 | inactive: 1.02 |
| C[C@H](CO)N1C[C@H](C)[C@H](CN(C)Cc2ccc3c(c2)OCO3)Oc2c(NS(=O)(=O)c3cn(C)cn3)cccc2C1=O | inactive: 0.976 |
| COc1ccc(S(=O)(=O)N(C)C[C@@H]2Oc3ccc(NC(=O)CCCN(C)C)cc3CC(=O)N([C@H](C)CO)C[C@@H]2C)cc1 | inactive: 1 |
| COc1ccc(C#Cc2ccc3c(c2)[C@]2(C(=O)N3)[C@H](c3ccc(O)cc3)N3[C@H](c4ccccc4)[C@H](c4ccccc4)OC(=O)[C@H]3[C@@H]2C(=O)NC[C@H](O)c2ccccc2)cc1 | inactive: 1.03 |
| CCN(CC)C(=O)c1cccnc1 | inactive: 0.955 |
| COc1ccc(NC(=O)N(C)C[C@@H]2OCCCC[C@H](C)Oc3ccc(NS(=O)(=O)c4cccs4)cc3C(=O)N([C@H](C)CO)C[C@H]2C)cc1 | inactive: 0.941 |
| C[C@@H]1CCCCO[C@@H](CN(C)C(=O)Nc2ccc(F)cc2)[C@@H](C)CN([C@H](C)CO)C(=O)c2cc(NC(=O)C3CCCCC3)ccc2O1 | inactive: 1.04 |
| COc1ccccc1NC(=O)N(C)C[C@H]1Oc2cc(Br)ccc2S(=O)(=O)N([C@@H](C)CO)C[C@H]1C | inactive: 1 |
| CC(C)NC(=O)N(C)C[C@@H]1Oc2ccc(NS(=O)(=O)c3cn(C)cn3)cc2CC(=O)N([C@H](C)CO)C[C@H]1C | inactive: 0.991 |
| C[C@@H]1CN([C@H](C)CO)C(=O)c2cc(NS(=O)(=O)c3ccccc3)ccc2O[C@@H](C)CCCCO[C@H]1CN(C)C(=O)Nc1ccccc1 | inactive: 0.987 |
| O=C(CCNc1n[nH]c(=O)[nH]c1=O)N1CCOCC1 | inactive: 0.98 |
| C[C@@H]1CN([C@@H](C)CO)C(=O)c2cc(NS(C)(=O)=O)ccc2O[C@@H](C)CCCCO[C@H]1CN(C)Cc1ccncc1 | inactive: 1.01 |
| C/C=C/c1ccc2c(c1)O[C@H](CN(C)C(=O)c1ccc3c(c1)OCO3)[C@@H](C)CN([C@@H](C)CO)S2(=O)=O | inactive: 1.02 |
| CC(C)(C)[S@](=O)N1Cc2cc(C(=O)NCc3ccc4c(c3)OCO4)nc(-c3cccc(-c4cccnc4)c3)c2[C@@H]1CCO | inactive: 1 |
| COc1ccc(NC(=O)N(C)C[C@@H]2Oc3ccc(NC(=O)Cn4cnnn4)cc3CC(=O)N([C@@H](C)CO)C[C@@H]2C)cc1 | inactive: 1.03 |
| CCC(C=CC(C)C1CCC2C3CC=C4CC(O)CCC4(C)C3CCC12C)C(C)C (stereo unspecified) | inactive: 1.17 |

| SMILES | relative growth |
| --- | --- |
| C[C@@H]1CN([C@@H](C)CO)C(=O)Cc2cc(NS(=O)(=O)c3cccs3)ccc2O[C@@H]1CN(C)CC1CC1 | inactive: 1.02 |
| C[C@H](CO)N1C[C@H](C)[C@@H](CN(C)C(=O)CN(C)C)Oc2cc(C#CC(C)(C)O)ccc2S1(=O)=O | inactive: 1.01 |
| C[C@@H]1CCCCO[C@H](CN(C)S(=O)(=O)c2ccc(F)cc2)[C@@H](C)CN([C@@H](C)CO)C(=O)c2cc(NC(=O)Cc3ccccc3)ccc2O1 | inactive: 1.04 |
| C[C@@H]1CN([C@H](C)CO)C(=O)c2cc(NC(=O)C3CCCCC3)ccc2O[C@@H](C)CCCCO[C@@H]1CN(C)Cc1ccc(Cl)c(Cl)c1 | inactive: 0.854 |
| C[C@@H]1CN([C@@H](C)CO)S(=O)(=O)c2ccc(C#CC3CC3)cc2O[C@H]1CN(C)Cc1ccccc1F | inactive: 0.917 |
| Cc1noc(C)c1S(=O)(=O)Nc1ccc2c(c1)CC(=O)N([C@@H](C)CO)C[C@H](C)[C@@H](CN(C)Cc1ccc(-c3ccccc3)cc1)O2 | inactive: 1.04 |
| CN(C)Cc1cn(CC[C@H]2CC[C@@H](NS(=O)(=O)c3ccccc3)[C@@H](CO)O2)nn1 | inactive: 0.972 |
| CN(C)CC(=O)N[C@H]1CC[C@H](CC(=O)NCCN2CCCCC2)O[C@H]1CO | inactive: 1.01 |
| C[C@@H]1CN([C@H](C)CO)C(=O)Cc2cc(NS(C)(=O)=O)ccc2O[C@H]1CN(C)C | inactive: 0.974 |
| C[C@@H]1CN([C@H](C)CO)C(=O)c2cccc(NC(=O)Nc3ccc4c(c3)OCO4)c2O[C@@H]1CN(C)S(C)(=O)=O | inactive: 0.984 |
| CN(C)C(=O)Cn1c(=O)oc2ccccc21 | inactive: 1.02 |
| C[C@@H]1CN([C@H](C)CO)C(=O)c2cc(NS(=O)(=O)c3ccccc3)ccc2O[C@@H]1CN(C)S(=O)(=O)c1cccs1 | inactive: 1.01 |
| COc1ccc(S(=O)(=O)Nc2ccc3c(c2)CC(=O)N([C@@H](C)CO)C[C@H](C)[C@@H](CN(C)S(=O)(=O)c2c(C)noc2C)O3)cc1 | inactive: 1.02 |
| Cc1ccc(-c2nc(Nc3ccccc3F)sc2C)cc1 | inactive: 0.941 |
| COc1ccccc1-c1cnc2c(c1)C(=O)N([C@@H](C)CO)C[C@@H](C)[C@H](CN(C)C(=O)c1ccncc1)O2 | inactive: 0.993 |
| COc1ccc(C#Cc2cnc3c(c2)C(=O)N([C@@H](C)CO)C[C@@H](C)[C@@H](CN(C)C(=O)CC2CC2)O3)cc1 | inactive: 1.02 |
| Nc1ccc(OCc2ccccc2)cc1 | inactive: 0.997 |
| C[C@@H]1CN([C@@H](C)CO)C(=O)c2cccc(NC(=O)NC3CCCCC3)c2O[C@@H]1CN(C)S(C)(=O)=O | inactive: 0.984 |
| CCCN(CCC)S(=O)(=O)c1ccc(C(=O)O)cc1 | inactive: 1.04 |
